Test results reported in the supplement of paper PMC11417369.
The other results are listed elsewhere or left out.

test system: PfHDP1 homeodomain (GST-tagged); assay: gcPBM binding intensity (ln(normalized median fluorescence intensity)); higher = stronger DNA binding
Procedure, shortened: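 Probes on an Agilent 4 × 180k array were primer-extended, double-stranded and 36 bp long, taken from intergenic genomic regions, with negative controls added. GST-tagged P. falciparum DNA-binding domains from E. coli, about 25 μg on average, were applied to the array for 1 h in 1× PBS containing 1% milk, 0.2 mg/ml BSA, 0.5% salmon testes DNA and 0.03% Triton X-100. Binding intensity, obtained after Alexa488 anti-GST antibody detection and a 488 nm scan, is the highest Masliner-normalised natural-log median intensity across replicate spots of either probe orientation.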

Question: How did the “gcPBM binding intensity (ln)” value turn out when “TAATTTTTGTAAACAGTCATGGATTCAAAAAAAAAA [CACACA_negctrl_site593]” was run?
Answer: Its value is 6.04.

Question: For “GGATATATGAAACATATTGAAAAACCGTTTAGTACA [CACACA_negctrl_site132]”, which “gcPBM binding intensity (ln)” value is on record?
Answer: Its value is 6.39.

Question: For “AAGGAAATAAGAAAAAGTACACATAAGTATATAACA [XGTACX_site1173]”, which “gcPBM binding intensity (ln)” value is on record?
Answer: The value was 6.47.

Question: How did the “gcPBM binding intensity (ln)” value turn out when “TAATAATCAAACTATACACACATAAATAAATATATA [CACACA_site156]” was run?
Answer: Its value is 6.52.

Question: For “CACGTGTAAATAGTTTTACAATATCTCGATATGTAT [CACACA_negctrl_site785]”, which “gcPBM binding intensity (ln)” value is on record?
Answer: Its value is 6.34.

Question: For “TATTGCCCTTGACACACACACATATAAATAAATATA [CACACA_site7220]”, which “gcPBM binding intensity (ln)” value is on record?
Answer: The value was 7.07.

Question: How did the “gcPBM binding intensity (ln)” value turn out when “TTAAACCGTGGGAGCACACACACACCCAGACACATA [CACACA_site4337]” was run?
Answer: The value was 6.4.

Question: “AAATATGTATATATATATATATATATATATATATAT [GTGCAC_negctrl_site335]” was tested. Which “gcPBM binding intensity (ln)” value did it give?
Answer: Its value is 9.43.

Question: “TTATGGGACTCAAATACATGCAAAAATATTTTTAAG [TGCATGCA_site559]” was tested. Which “gcPBM binding intensity (ln)” value did it give?
Answer: The value was 6.74.

Question: With “TAAGGTTAAATAATATGTACATATTATTATATATAT [XGTACX_site6953]” as the sequence, how does the “gcPBM binding intensity (ln)” value read?
Answer: Its value is 7.01.

Question: For “AAATATAATAAAATGACACACGCATATATATATATA [CACACA_site8900]”, which “gcPBM binding intensity (ln)” value is on record?
Answer: Its value is 9.38.

Question: “ATATATCCAAATAGATTACATATATATATATAGATA [TGCATGCA_negctrl_site277]” was tested. Which “gcPBM binding intensity (ln)” value did it give?
Answer: The value was 6.34.

Question: AAATAAGAACATAGAATGCACTTTTTTTTTTTTTCC was tested. Which “gcPBM binding intensity (ln)” value did it give?
Answer: Its value is 7.03.

Question: For “AACATTATAAGACACACACACACATATATAAATATA [CACACA_site6622]”, which “gcPBM binding intensity (ln)” value is on record?
Answer: Its value is 6.99.

Question: With “ATATATTTATATATTGCACACAAAAAAAAAAAAAAA [CACACA_site8468]” as the sequence, how does the “gcPBM binding intensity (ln)” value read?
Answer: The value was 10.5.

Question: How did the “gcPBM binding intensity (ln)” value turn out when “GTATATATACATAAATGTACATATATATAAAAAATG [XGTACX_site3271]” was run?
Answer: Its value is 6.41.

Question: “AATATATAAGTCTACTGTACCCAAAATAAAATTTAT [XGTACX_site8727]” was tested. Which “gcPBM binding intensity (ln)” value did it give?
Answer: Its value is 6.18.

Question: Which “gcPBM binding intensity (ln)” value does the source give for “TTCATTTTAATAATATGTACATAATATATTTAAAAA [XGTACX_site634]” here?
Answer: The value was 6.47.

Question: Which “gcPBM binding intensity (ln)” value does the source give for “GTATATATATTTGTACGTACATATTGTTGTAAACAC [XGTACX_site8833]” here?
Answer: The value was 6.87.

Question: “TTTTTTATTGTGATACGTATATTATTTTATGATTAA [GTGCAC_negctrl_site202]” was tested. Which “gcPBM binding intensity (ln)” value did it give?
Answer: Its value is 6.82.

Question: Which “gcPBM binding intensity (ln)” value does the source give for “AAGAGAGACATCAACACACATACGTATGTATAGAAA [CACACA_site1397]” here?
Answer: The value was 6.5.

Question: With “TATATTTATGTATATGTGCACATAAATTTAAGAATG [GTGCAC_site9512]” as the sequence, how does the “gcPBM binding intensity (ln)” value read?
Answer: Its value is 10.9.

Question: “ATAGCCAAAAATCATGCACACCTAAAAAAAAAAAAA [CACACA_site8826]” was tested. Which “gcPBM binding intensity (ln)” value did it give?
Answer: Its value is 8.39.

Question: For “CGTATGCGTATATACACACCCACGTATATATATAAA [CACACA_site3200]”, which “gcPBM binding intensity (ln)” value is on record?
Answer: Its value is 6.66.

Question: With “ATTTTTAATCATTTACAACCTAGTGATTATACAAAT [CACACA_negctrl_site1089]” as the sequence, how does the “gcPBM binding intensity (ln)” value read?
Answer: Its value is 6.4.

Question: For “ATATAATAATTGTACACATGCACACACAAATATTAT [TGCATGCA_site204]”, which “gcPBM binding intensity (ln)” value is on record?
Answer: Its value is 8.83.

Question: How did the “gcPBM binding intensity (ln)” value turn out when “AAGGAATATTAAGTGGGTACTAAAAAAAAATTAATT [XGTACX_site331]” was run?
Answer: Its value is 6.53.

Question: For “TTAAAGCACCCATGCACACACACAAGGGAAAAGAAA [CACACA_site4289]”, which “gcPBM binding intensity (ln)” value is on record?
Answer: Its value is 8.12.

Question: How did the “gcPBM binding intensity (ln)” value turn out when “TTTTTAATTAACTTTGTAAACTTATATATATATATA [TGCATGCA_negctrl_site311]” was run?
Answer: Its value is 9.25.

Question: With “TGTATATAGAAACATACACACATATTAATTTTACAT [CACACA_site3126]” as the sequence, how does the “gcPBM binding intensity (ln)” value read?
Answer: Its value is 6.51.

Question: “TTTTTTATTAAAAGCGAAAAAAATGAAAACTTTTTT [GTGCAC_negctrl_site605]” was tested. Which “gcPBM binding intensity (ln)” value did it give?
Answer: The value was 5.98.

Question: How did the “gcPBM binding intensity (ln)” value turn out when “GGGGGTAGGGGAAGAAGTACAATGATCACTACAGTA [XGTACX_site1169]” was run?
Answer: Its value is 7.85.

Question: How did the “gcPBM binding intensity (ln)” value turn out when “TCCAATTAAATATATGAACACACATGTGAACTTTCT [CACACA_site9318]” was run?
Answer: Its value is 6.32.

Question: Which “gcPBM binding intensity (ln)” value does the source give for “TTAAGTCATAAATAAAGTACATAAATATAATATATA [XGTACX_site6304]” here?
Answer: The value was 6.12.

Question: How did the “gcPBM binding intensity (ln)” value turn out when “ATGTAAATGTTATTATGTACATATTTATTCTTCAAA [XGTACX_site7377]” was run?
Answer: The value was 6.43.

Question: “TTTTTTCTTTAATACTCAATATGATAAAAGTAACAC [XGTACX_negctrl_site163]” was tested. Which “gcPBM binding intensity (ln)” value did it give?
Answer: The value was 6.52.

Question: “AAAGTTTTTACCAAGTGTACATATATATATATATAT [XGTACX_site5786]” was tested. Which “gcPBM binding intensity (ln)” value did it give?
Answer: Its value is 9.33.

Question: Which “gcPBM binding intensity (ln)” value does the source give for “GTTAAAATTTGTCAATGTACAGAAATAATAAAAAAA [XGTACX_site1879]” here?
Answer: The value was 6.75.

Question: With GTTTATTTATTTTATGTGCACATATAACAAAAAAAA as the sequence, how does the “gcPBM binding intensity (ln)” value read?
Answer: Its value is 10.7.

Question: For “TATTTTTTTTAGCGTACATGCAAAAAAAAAAAAAAA [TGCATGCA_site555]”, which “gcPBM binding intensity (ln)” value is on record?
Answer: The value was 6.33.

Question: “GACCCAATGAAAAGGTCACACATTTTTTCTTTTCGA [CACACA_site5074]” was tested. Which “gcPBM binding intensity (ln)” value did it give?
Answer: Its value is 5.84.

Question: For “AAAAATAAAAAGAATTGTACATATAAATCATATACA [XGTACX_site6860]”, which “gcPBM binding intensity (ln)” value is on record?
Answer: The value was 5.86.

Question: With “TAAAAATATATAAACAGTACATAAATTAAATAAATA [XGTACX_site6962]” as the sequence, how does the “gcPBM binding intensity (ln)” value read?
Answer: Its value is 6.44.

Question: For “ATTTTGTATATATTTTGTACATATTTTGTATATATT [XGTACX_site885]”, which “gcPBM binding intensity (ln)” value is on record?
Answer: Its value is 6.64.

Question: Which “gcPBM binding intensity (ln)” value does the source give for “AAATATTATACAAAAAAAAAAAAAAAAAAAATATAT [CACACA_negctrl_site52]” here?
Answer: The value was 6.16.

Question: “TTGTTTTTAAGAAAAACACACACTCCTGTTATTTTA [CACACA_site9230]” was tested. Which “gcPBM binding intensity (ln)” value did it give?
Answer: Its value is 6.19.

Question: For “GTATGTATAATATACACACTCACAAGCATTCAAATA [CACACA_site267]”, which “gcPBM binding intensity (ln)” value is on record?
Answer: The value was 6.51.

Question: “ATATAAACATGTTTGTGTACGTAATATGAAAAATAA [XGTACX_site8157]” was tested. Which “gcPBM binding intensity (ln)” value did it give?
Answer: The value was 7.22.

Question: “TTAGGACAAAAAAAAATAAAAATAAAATAAAATAAT [CACACA_negctrl_site1613]” was tested. Which “gcPBM binding intensity (ln)” value did it give?
Answer: The value was 6.42.

Question: Which “gcPBM binding intensity (ln)” value does the source give for “ATTTTTTTTTTTATAGTGGAACCACATTTGCCATTT [CACACA_negctrl_site1247]” here?
Answer: Its value is 6.47.

Question: Which “gcPBM binding intensity (ln)” value does the source give for “TATTAAATGAAACAAACACACATAGCCTTTAAATAT [CACACA_site1560]” here?
Answer: Its value is 6.62.

Question: Which “gcPBM binding intensity (ln)” value does the source give for “ATATATATATCATATTGTACATATTATTGTATAATC [XGTACX_site5020]” here?
Answer: Its value is 8.16.

Question: “AAATTATATATATTTACATGCAATATAATGAAATAA [TGCATGCA_site229]” was tested. Which “gcPBM binding intensity (ln)” value did it give?
Answer: The value was 6.46.

Question: For “ATAAAATAAAACAGAGCACACATTTTATTTACATTC [CACACA_site696]”, which “gcPBM binding intensity (ln)” value is on record?
Answer: The value was 6.74.

Question: “TACACATACAGACATACACACATACACATATACACA [CACACA_site6918]” was tested. Which “gcPBM binding intensity (ln)” value did it give?
Answer: Its value is 7.13.

Question: “AAAAAAAAAAAAAACACACACACACGCACATATACA [CACACA_site7288]” was tested. Which “gcPBM binding intensity (ln)” value did it give?
Answer: Its value is 6.98.
